Measured values taken from PubChem BioAssay AID504706 (National Center for Advancing Translational Sciences (NCATS), 2011).
The whole screen tested about 320,000 compounds, of which about 200 (0.062%) were called active. Inconclusive means that the source gave no clear call. Such entries were picked first, then a sample of the others. Calls follow the shape of the dose curve; as a rule, active = well fitted activation curve with a large enough effect; inconclusive = small, poorly fitted or top-dose-only effect; inactive = no such curve, though single readings can be large or run the other way. Potencies of inconclusive entries are left out as doubtful fits.

Assay: qHTS assay for re-activators of p53 using a Luc reporter; also: nearly all actives have a fitted effect of over 45% in size; as to activity change, positive = activation: % of control where 0% means no effect
Settings: H1299 p53-A138V BP100-luciferase reporter, luminescence, 24 h; series mostly up to 92.2 µM; activity change, positive = activation: at the top concentration
How it was run: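 H1299 (p53-null), stable ts p53-A138V + BP100-Luc; 1000 cells/well, Opti-MEM/10% FBS; cpd 4 pt, 1:5; 24 h, 37 deg C, 5% CO2; detection reagent 10 min RT; luminescence.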
Potency is read from the fitted curve at half-maximal effect; tags tell the direction and shape of the fitted curve.

| SMILES | Potency | activity change, positive = activation |
| --- | --- | --- |
| Cc1ccc(/C(O)=C2\C(=O)C(=O)N(Cc3cccnc3)C2c2ccccc2[N+](=O)[O-])cc1 (centres undefined) | inconclusive [activator, partial curve, poor fit] | – |
| O=C(Nc1ccccc1)OCCCCCOC(=O)Nc1ccccc1 | inconclusive [activator, single point] | – |
| O=C(CC(=O)c1ccccc1)Nc1ccc(Cl)cc1 | inconclusive [activator, partial curve, poor fit] | – |
| O=C(NNC1=NCCCCC1)Nc1cccc(Cl)c1 | – | inactive: 29.5% |
| Cc1ccc(S(=O)(=O)NCc2ccncc2)cc1 | – | inactive: 0.279% |
| O=[N+]([O-])c1ccc(/C=C/C2=NN(c3ccccc3)C(c3ccco3)C2)o1 (centres undefined) | inconclusive [activator, partial curve, poor fit] | – |
| O=[N+]([O-])c1cc(C(F)(F)F)ccc1NC1CCN(Cc2ccccc2)CC1 | – | inactive: 3% |
| CCC(=O)NC(=S)Nc1ccc2oc(-c3ccc(OC)cc3)nc2c1 | – | inactive: 27.4% |
| Cc1ccc(S(=O)(=O)CCC(=O)c2ccc(F)cc2)cc1 | – | inactive: -12.4% |
| Nc1c(C(=O)NC2CCCC2)c2nc3ccccc3nc2n1N | inconclusive [activator, single point] | – |
| CC(=O)Oc1ccc(C(=O)Nc2ccc(C3(C#N)CCCC3)cc2)cc1 | – | inactive: -2.51% |
| CC12CCC(=O)N1C(C(=O)Nc1nc3ccc(F)cc3s1)CS2 (centres undefined) | inconclusive [activator, full curve, poor fit] | – |
| Cc1ccc(S(=O)(=O)N2CCC(CN3C(=O)c4cccc5cccc(c45)C3=O)CC2)cc1 | – | inactive: -4.31% |
| COCC(=O)n1nc(-c2ccc(Cl)cc2)nc1NCc1ccc(F)cc1 | inconclusive [activator, partial curve, poor fit] | – |
| CCSc1nc2c(cnn2-c2ccccc2)c(=O)n1N | – | inactive: 4.9% |
| CCN1C(=O)/C(=C\N(C(C)=O)c2ccccc2)OC1=S | inconclusive [activator, partial curve, poor fit] | – |
| O=C(NCc1ccccn1)c1cc(-c2ccc(-c3ccccc3)cc2)nc2ccccc12 | inconclusive [activator, partial curve, poor fit] | – |
| Cc1ccc(NC(=O)c2ccccc2)cc1C | – | inactive: 7.85% |
| O=C(COC(=O)c1ccc(O)cc1)NC1CCCCCC1 | inconclusive [activator, partial curve, poor fit] | – |
| CN(C(=O)C1CCOC1)c1nnc(-c2ccccn2)s1 (centres undefined) | inconclusive [activator, full curve, poor fit] | – |
| Cc1nc(SCC(=O)N2CCNC2=O)c2ccccc2n1 | inconclusive [activator, partial curve, poor fit] | – |
| Cc1ccc(NC(=O)Cc2noc3ccccc23)cc1 | inconclusive [activator, full curve, poor fit] | – |

| SMILES | Potency | activity change, positive = activation |
| --- | --- | --- |
| O=C1CN(C(=S)Nc2ccc(OC(F)F)cc2)CCN1 | inconclusive [activator, partial curve, poor fit] | – |
| CCn1ncc(Cl)c1C(=O)NC(=S)Nc1ccccc1Br | inconclusive [activator, full curve, poor fit] | – |
| NNc1nc2ccc(F)cc2s1 | inconclusive [activator, full curve] | – |
| CCc1ccc2c(c1)C(=O)C(=O)N2CCS(=O)(=O)c1ccccc1 | inconclusive [activator, partial curve, poor fit] | – |
| O=C(COC(=O)CNC(=O)c1ccc(Br)o1)Nc1ccccc1OC(F)F | inconclusive [activator, single point] | – |
| CCOc1ccc(CNc2nc3ccccc3n2C)cc1 | inconclusive [activator, full curve, poor fit] | – |
| CCOC(=O)c1c(-c2ccc(C)o2)csc1NC(=O)CN(C)CC(=O)Nc1ccc(C)cc1 | – | inactive: 1.15% |
| CC(=O)N1N=C(c2ccccc2)CC1c1cn(C)c2ccccc12 (centres undefined) | inconclusive [activator, single point] | – |
| O=C(N/N=C/c1cccc(OC(=O)N2CCOCC2)c1)c1cccs1 | inconclusive [activator, full curve, poor fit] | – |
| COc1ccccc1OCC(=O)Nc1ccccc1C(=O)Nc1cccc(C(=O)O)c1 | – | inactive: 3.73% |
| CN1CCN(c2ccc(NC(=O)c3ccc4ccccc4c3)cc2)CC1 | inconclusive [activator, partial curve, poor fit] | – |
| O=C1/C(=C\c2cccnc2)Sc2ccccc21 | – | inactive: 12.9% |
| COc1ccc(NC(=O)CN(c2ccc(C)cc2)S(=O)(=O)c2c(C)nn(C)c2C)cc1OC | – | inactive: -6.19% |
| c1ccc2c(c1)OCC(CNc1ncnc3sccc13)O2 (centres undefined) | inconclusive [activator, single point] | – |
| COc1ccc2nc(NC(=O)Cc3cccs3)sc2c1 | inconclusive [activator, partial curve, poor fit] | – |
| N#CC(=C1CCCC1)c1nc(-c2cc3ccccc3oc2=O)cs1 | inconclusive [activator, partial curve, poor fit] | – |
| COc1ccc(-c2nc(N)nc(N)n2)c(O)c1 | inconclusive [activator, full curve, poor fit] | – |
| CN1CCN(C(c2ccc(Cl)cc2)c2cc(Cl)c3cccnc3c2O)CC1 (centres undefined) | inconclusive [activator, partial curve, poor fit] | – |
| Clc1ccc(CN=C2Nc3ccccc3CS2)cc1 | inconclusive [activator, partial curve, poor fit] | – |
| COc1ccc(-c2noc(CCC(=O)NC3CCCCCC3)n2)cc1 | – | inactive: 7.96% |
| Cc1occc1C(=O)Nc1nnc(-c2ccncc2)s1 | inconclusive [activator, partial curve, poor fit] | – |
| CC[C@]12c3[nH]c4ccccc4c3CCN1C(=O)C(CC(=O)NCCN1CCOCC1)C[C@@H]2C(=O)N1CCN(C(=O)c2ccco2)CC1 (some centres undefined) | – | inactive: 3.46% |
